According to the RNAGym collection of RNA variant scans (doi:10.1101/gad.245936.114):
Variants at the floor of the assay are shown more often than the library holds them.

B1: tRNA (parent)
chain: CUCUCGGUAGCCAAGUUGGUUUAAGGCGCAAGACUUUAAUUUAUCACUACGAAAUCUUGAGAUCGGGCGUUCGACUCGCCCCCGGGAGAUUUUUUCCUCGAGCAA

Variants of: B1
Experiment: nonsense suppression (GFP-seq) (ratio to wild type); higher = more function; SUP4oc tRNA, yeast GFP reporter sort-seq
Procedure, shortened: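 Yeast were grown in raffinose/galactose medium with 80 mg/L adenine, each strain bearing a genome-integrated ochre-suppressor tRNA variant from a ~3% random-mutation library, a galactose-driven GFP ochre reporter, and RFP. After sorting into GFP/RFP bins, every bin was sequenced on an Illumina platform at phred ≥30. The GFPSEQ value, a measure of nonsense suppression, is the weighted bin median GFP/RFP relative to the unmutated parent tRNA, using each variant's estimated cell share per bin as the weight. Only variants with ≥100 reads and ≥30 cells were included.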

First: U16A A24G G28U U71C
Second: U16C A31G
The nonsense suppression of the first is lower: at most 0.026 for the first, 1.07 for the second.

U16A U17C A30U G67C A87G and U16C U57C cannot be ordered by nonsense suppression: at most 0.026 for the first, at most 0.026 for the second.

G15U U63G and G15U U63C cannot be ordered by nonsense suppression: at most 0.026 for the first, at most 0.026 for the second.

Compared with U17G C27G U71G, U16G G78C is higher in nonsense suppression: at most 0.026 for the first, 0.113 for the second.

U17C G32C C72U and U17C G32C C72G cannot be ordered by nonsense suppression: at most 0.026 for the first, at most 0.026 for the second.

Compared with U17C G59U, U16A U22G C79U is higher in nonsense suppression: at most 0.026 for the first, 0.208 for the second.

U16A C34G U63C C77G G86C and U17C G85C cannot be ordered by nonsense suppression: at most 0.026 for the first, at most 0.026 for the second.

U17C C27G U71A and U16A G84C cannot be ordered by nonsense suppression: at most 0.026 for the first, at most 0.026 for the second.

U17A G67U C72U C77G and U17A C27U A62U A89G cannot be ordered by nonsense suppression: at most 0.026 for the first, at most 0.026 for the second.

U17C G69A U70C G78U C83A and U16G G28A C77A C82A cannot be ordered by nonsense suppression: at most 0.026 for the first, at most 0.026 for the second.

U17A A23C C68G and U16A G19C U20C G28U U55G cannot be ordered by nonsense suppression: at most 0.026 for the first, at most 0.026 for the second.

U17G A23C and U16G A24C G26C G69U U76G C81A cannot be ordered by nonsense suppression: at most 0.026 for the first, at most 0.026 for the second.

U16A G19U U21G A60U and U17C G19A C27G cannot be ordered by nonsense suppression: at most 0.026 for the first, at most 0.026 for the second.

U16C A24G G61U G65C and U17C G26C cannot be ordered by nonsense suppression: at most 0.026 for the first, at most 0.026 for the second.

U17G A30U G67A and U16G G26C U58G cannot be ordered by nonsense suppression: at most 0.026 for the first, at most 0.026 for the second.

U16A U63A G67U C75U G85U and U16G G66A G67C cannot be ordered by nonsense suppression: at most 0.026 for the first, at most 0.026 for the second.

U17A A23G A31C and U16A G69C cannot be ordered by nonsense suppression: at most 0.026 for the first, at most 0.026 for the second.

U16A G69A and U17A C83G cannot be ordered by nonsense suppression: at most 0.026 for the first, at most 0.026 for the second.

U16C G32A U57C G66A G84A and U16G G19U G66C cannot be ordered by nonsense suppression: at most 0.026 for the first, at most 0.026 for the second.

U16A U35A G85A and U16G C27U A33U U35A U55G cannot be ordered by nonsense suppression: at most 0.026 for the first, at most 0.026 for the second.

U16A C34A U70A C75U and U17C U57A U58G cannot be ordered by nonsense suppression: at most 0.026 for the first, at most 0.026 for the second.

First: U16A U21G
Second: U16A G61A C64U G78C
The nonsense suppression of the first is higher: 0.752 for the first, at most 0.026 for the second.

U16C A74C C75A and U17C U35C U76A cannot be ordered by nonsense suppression: at most 0.026 for the first, at most 0.026 for the second.

U16C C77A and U16C C81A cannot be ordered by nonsense suppression: at most 0.026 for the first, at most 0.026 for the second.

First: U16C A74G
Second: U16A U22C
The nonsense suppression of the first is lower: at most 0.026 for the first, 1.08 for the second.

First: U17C G73A
Second: U16C U55A U76G C77G G85A G88A
The nonsense suppression of the first is higher: 0.899 for the first, at most 0.026 for the second.

Compared with U16G A30C, U17C A30G is higher in nonsense suppression: at most 0.026 for the first, 0.326 for the second.

U16C A74C G78U G85C and U16A A62G C75A C80G cannot be ordered by nonsense suppression: at most 0.026 for the first, at most 0.026 for the second.

U16A G32A C64G and U16C G18U A24U C79U cannot be ordered by nonsense suppression: at most 0.026 for the first, at most 0.026 for the second.

U16A G26A and U16C U57C U58C C68U U70C C79G G86U cannot be ordered by nonsense suppression: at most 0.026 for the first, at most 0.026 for the second.

U16G G25U G67A C81G and U17C U35G G61C U76C cannot be ordered by nonsense suppression: at most 0.026 for the first, at most 0.026 for the second.

U17C G25C C80U and U16C A30G U63A G85A G86C A87U cannot be ordered by nonsense suppression: at most 0.026 for the first, at most 0.026 for the second.

U16C C34G and U16C C34U cannot be ordered by nonsense suppression: at most 0.026 for the first, at most 0.026 for the second.

U16G A54C G66U C79A G85U and U16A C75U C77G C81U cannot be ordered by nonsense suppression: at most 0.026 for the first, at most 0.026 for the second.

U16C A23G G28U G85U and U16C C83A cannot be ordered by nonsense suppression: at most 0.026 for the first, at most 0.026 for the second.

Going from U16C U17G to U16A G26U G86A, the nonsense suppression falls from 1.07 to at most 0.026.

U17C U22G C27U and U17C U71C cannot be ordered by nonsense suppression: at most 0.026 for the first, at most 0.026 for the second.

U17C G26U C34A U76C and U16G U35G G66C G69U C79U cannot be ordered by nonsense suppression: at most 0.026 for the first, at most 0.026 for the second.

Going from U16A A33G to U17C U71C C83A, the nonsense suppression falls from 0.0423 to at most 0.026.

U16A U55A and U17A U21G C64U cannot be ordered by nonsense suppression: at most 0.026 for the first, at most 0.026 for the second.

First: U16C G61U G73A
Second: U16C G69C C80U
The nonsense suppression of the first is higher: 0.438 for the first, at most 0.026 for the second.

U17G A23G C34U A74C A89G and U17C A23C cannot be ordered by nonsense suppression: at most 0.026 for the first, at most 0.026 for the second.

U17G A24U U58G U63G and U17C A23G G66C U71G cannot be ordered by nonsense suppression: at most 0.026 for the first, at most 0.026 for the second.

First: U17G A24U
Second: U16A C29U G86A
The nonsense suppression of the first is higher: 0.159 for the first, at most 0.026 for the second.

U17A A62U C75G and U17G A33G C64A cannot be ordered by nonsense suppression: at most 0.026 for the first, at most 0.026 for the second.

First: U16G U63A
Second: U17A U76C
The nonsense suppression of the first is higher: 1.09 for the first, 1.06 for the second.

U16A A23C U35G A60C and U17A G18C A87U cannot be ordered by nonsense suppression: at most 0.026 for the first, at most 0.026 for the second.

U16G G59A and U17C G61U A62U cannot be ordered by nonsense suppression: at most 0.026 for the first, at most 0.026 for the second.

First: U17A U21A
Second: U17C C64A C72A
The nonsense suppression of the first is higher: 0.966 for the first, at most 0.026 for the second.

G15U U63G U76A and U16C A30G U35G U70A cannot be ordered by nonsense suppression: at most 0.026 for the first, at most 0.026 for the second.

G15U U70G and U16C U17C A23G C29U U55A G88C cannot be ordered by nonsense suppression: at most 0.026 for the first, at most 0.026 for the second.

Compared with U17C A31C, U17C A24C is higher in nonsense suppression: at most 0.026 for the first, 0.276 for the second.

U17C G78C C82U and U17A G66U A89G cannot be ordered by nonsense suppression: at most 0.026 for the first, at most 0.026 for the second.

U16G G19U and U17C G25U cannot be ordered by nonsense suppression: at most 0.026 for the first, at most 0.026 for the second.

U16A and U16G are the same in nonsense suppression: 1 for the first, 1 for the second.

First: U16C
Second: U17C A24G C72U
The nonsense suppression of the first is higher: 0.862 for the first, at most 0.026 for the second.

U17C C34G C68A C82G and U16C U22A A31C cannot be ordered by nonsense suppression: at most 0.026 for the first, at most 0.026 for the second.

Compared with U16C A30G, U16C U17C U21G G25U U57G is lower in nonsense suppression: 1.17 for the first, at most 0.026 for the second.

Compared with U17A A33G, U16C U20C C29A U70A is lower in nonsense suppression: 0.104 for the first, at most 0.026 for the second.

U16C U17A U20G U35C G86U and U17C C64G C72A C81A G84C cannot be ordered by nonsense suppression: at most 0.026 for the first, at most 0.026 for the second.

Compared with U16A U35A, U17A U55C is higher in nonsense suppression: at most 0.026 for the first, 0.176 for the second.

U17A U55G and U16A G18U A24C U58G cannot be ordered by nonsense suppression: at most 0.026 for the first, at most 0.026 for the second.

U17G A31C U35G C64A and U17A G26A A33C cannot be ordered by nonsense suppression: at most 0.026 for the first, at most 0.026 for the second.

U16G C27G and U17C C81U cannot be ordered by nonsense suppression: at most 0.026 for the first, at most 0.026 for the second.

U16A C27U U57A and U16G A62G C83G cannot be ordered by nonsense suppression: at most 0.026 for the first, at most 0.026 for the second.

U16C C34A C75U and U16A A24G U55G A74G G84A cannot be ordered by nonsense suppression: at most 0.026 for the first, at most 0.026 for the second.

Going from U16A A30G to U17A G67U C72G C77G, the nonsense suppression falls from 0.312 to at most 0.026.

U17G C27A A33C U57G U71A G86A and U16G A62U G88U cannot be ordered by nonsense suppression: at most 0.026 for the first, at most 0.026 for the second.

U17C A33C A54G G66C and U17C A23C A62G cannot be ordered by nonsense suppression: at most 0.026 for the first, at most 0.026 for the second.

U17C A24G A89U and U17C A33U G61C G73U cannot be ordered by nonsense suppression: at most 0.026 for the first, at most 0.026 for the second.

First: U17A U22G
Second: U16A C56A
The nonsense suppression of the first is higher: 1.03 for the first, at most 0.026 for the second.

U17G A24C G67U and U16C A30G U55G cannot be ordered by nonsense suppression: at most 0.026 for the first, at most 0.026 for the second.

U16A U55G U57A and U16A C29A cannot be ordered by nonsense suppression: at most 0.026 for the first, at most 0.026 for the second.

U17A A23C G25U G59C A60G G61C and U16C G18U C27A G88A cannot be ordered by nonsense suppression: at most 0.026 for the first, at most 0.026 for the second.

U16C A31C C77G and G15U U76G cannot be ordered by nonsense suppression: at most 0.026 for the first, at most 0.026 for the second.

G15U U76C and U16A A62U cannot be ordered by nonsense suppression: at most 0.026 for the first, at most 0.026 for the second.

U16G C82A A87C and U17G C27G cannot be ordered by nonsense suppression: at most 0.026 for the first, at most 0.026 for the second.

U17A U20G G28A C29A and U17C G88C cannot be ordered by nonsense suppression: at most 0.026 for the first, at most 0.026 for the second.

U17C G88U and U17A A23C cannot be ordered by nonsense suppression: at most 0.026 for the first, at most 0.026 for the second.

U16G G61C G69A and U17A A74G G86A cannot be ordered by nonsense suppression: at most 0.026 for the first, at most 0.026 for the second.

U17A A24C C29U A30G U63C U70C G73A A74C C80U and U17C C77A C81G G86A cannot be ordered by nonsense suppression: at most 0.026 for the first, at most 0.026 for the second.

First: U16G G73C
Second: U17A U21C G85A
The nonsense suppression of the first is lower: at most 0.026 for the first, 1.06 for the second.

U16A U71A and U17C A60C G67U cannot be ordered by nonsense suppression: at most 0.026 for the first, at most 0.026 for the second.

U17C G32C showed a nonsense suppression of at most 0.026.
